These results are taken from the antibiotic and cytotoxicity screens of Wong et al. (2023).

The other results are listed elsewhere or left out.

The assay has as its system S. aureus RN4220. Put plainly: growth inhibition call (relative growth <= 0.2). Particulars: 50 µM.
Consider `O=C1OC(=O)[C@H]2[C@@H]1[C@H]1CC[C@H]2O1`, for which the growth inhibition call is “inactive”. The result for `CC(C)NC(=O)Nc1ccc2c(c1)C(=O)N([C@H](C)CO)C[C@H](C)[C@H](CN(C)S(=O)(=O)c1cn(C)cn1)O2` reads “inactive”; that for `C[C@H](CO)N1C[C@H](C)[C@H](CN(C)C(=O)Nc2ccnc(N3CCOCC3)c2)OCc2cn(nn2)CCCC1=O`, “inactive”. The result for `COCC(=O)N1c2ccccc2C[C@H]1C(N)=O` reads “inactive”. Next, `Cc1cc(C(=O)Nc2cccc3c2O[C@H](CN(C)Cc2ccc4c(c2)OCO4)[C@@H](C)CN([C@H](C)CO)C3=O)n(C)n1`: “inactive”; `CC(=O)Nc1ccc(O)cc1`: “inactive”; `C[C@H]1CN([C@@H](C)CO)C(=O)Cc2cc(NC(=O)CCN3CCOCC3)ccc2O[C@H]1CN(C)S(=O)(=O)c1cn(C)cn1`: “inactive”. Consider `C[C@@H]1CN([C@@H](C)CO)C(=O)Cc2cc(NC(=O)Cc3cn(C)c4ccccc34)ccc2O[C@H]1CN(C)C(=O)Nc1cccc2ccccc12`, for which the growth inhibition call was “inactive”. The result for `C[C@@H]1CCCCO[C@H](CN(C)C(=O)c2ccccc2)[C@@H](C)CN([C@H](C)CO)C(=O)c2cc(NC(=O)Nc3ccc(C(F)(F)F)cc3)ccc2O1` reads “inactive”. `C[C@@H]1CCCCO[C@H](CN(C)C(=O)C2CCCCC2)[C@H](C)CN([C@@H](C)CO)C(=O)c2cc(NC(=O)C3CCCCC3)ccc2O1`: the growth inhibition call was “inactive”. The result for `COc1cccc(S(=O)(=O)N(C)C[C@@H]2Oc3ncc(-c4cccc(F)c4)cc3C(=O)N([C@H](C)CO)C[C@@H]2C)c1` reads “inactive”.

Take `CC(C)NC(=O)N(C)C[C@@H]1Oc2c(NC(=O)C3CCOCC3)cccc2C(=O)N([C@@H](C)CO)C[C@@H]1C`: the growth inhibition call is “inactive”.
